Experimental data: PMC4336329 (PLoS ONE, 2015)
About 14,000 (4.5%) of roughly 310,000 compounds showed an effect of 50% or more. The effect is printed as a negative number. Some of the results follow.

target: human ether-à-go-go-related gene (hERG) potassium channel (human, UniProt Q12809); assay: primary screen, population patch clamp on CHO cells stably expressing hERG
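Further: peak tail current of the secondary pulse compared with the same well before compound.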

Chain of human ether-à-go-go-related gene (hERG) potassium channel (Q12809 whole entry, looked up): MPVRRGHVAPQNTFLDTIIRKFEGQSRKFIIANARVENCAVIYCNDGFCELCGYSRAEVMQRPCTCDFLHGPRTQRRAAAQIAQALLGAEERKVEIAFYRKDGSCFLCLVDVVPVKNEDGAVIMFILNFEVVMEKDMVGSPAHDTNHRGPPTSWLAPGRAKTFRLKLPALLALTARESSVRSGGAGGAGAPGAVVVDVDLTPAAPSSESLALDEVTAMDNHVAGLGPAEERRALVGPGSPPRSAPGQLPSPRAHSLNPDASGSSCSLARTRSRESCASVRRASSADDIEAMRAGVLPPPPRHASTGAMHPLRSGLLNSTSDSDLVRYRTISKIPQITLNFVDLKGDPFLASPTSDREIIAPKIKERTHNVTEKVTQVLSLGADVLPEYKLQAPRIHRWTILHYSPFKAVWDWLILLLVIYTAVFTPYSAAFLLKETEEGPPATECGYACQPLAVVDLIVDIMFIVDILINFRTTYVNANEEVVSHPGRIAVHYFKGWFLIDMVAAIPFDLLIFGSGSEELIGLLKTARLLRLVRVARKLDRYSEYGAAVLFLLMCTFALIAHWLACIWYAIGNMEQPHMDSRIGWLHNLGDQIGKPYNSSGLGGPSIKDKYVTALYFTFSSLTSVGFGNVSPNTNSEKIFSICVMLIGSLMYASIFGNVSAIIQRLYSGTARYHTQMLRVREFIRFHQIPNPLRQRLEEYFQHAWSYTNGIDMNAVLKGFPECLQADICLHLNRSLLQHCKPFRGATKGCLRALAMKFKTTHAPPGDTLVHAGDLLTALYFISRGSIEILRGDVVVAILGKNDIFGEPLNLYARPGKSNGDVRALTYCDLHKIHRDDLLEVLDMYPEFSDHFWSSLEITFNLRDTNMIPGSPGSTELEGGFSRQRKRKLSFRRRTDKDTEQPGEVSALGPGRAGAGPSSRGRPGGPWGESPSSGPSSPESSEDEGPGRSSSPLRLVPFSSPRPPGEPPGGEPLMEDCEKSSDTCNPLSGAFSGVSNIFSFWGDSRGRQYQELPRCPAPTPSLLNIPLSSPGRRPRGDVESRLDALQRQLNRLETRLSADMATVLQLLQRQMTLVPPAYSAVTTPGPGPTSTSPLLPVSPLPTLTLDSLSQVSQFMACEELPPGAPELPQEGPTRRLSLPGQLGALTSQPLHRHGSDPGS

| Structure (SMILES) | hERG current change (%, negative = inhibition) at 10uM |
| --- | --- |
| Cc1ccc(Cl)cc1NC(=O)c1cnn2c1NC(c1ccco1)CC2C(F)(F)F (stereo not shown) | -14.3% |
| OC(COc1cccc2ccccc12)CN1CCN(c2cccc(Cl)c2)CC1 (stereo not shown) | 1.82% |
| N/C(=N\OC(=O)c1cc([N+](=O)[O-])ccc1Cl)c1cccnc1 | 2.44% |
| C/C(=N\NC(=O)c1c(Cl)c(C)nn1C)c1cccc(NC(=O)COc2ccc(Cl)cc2)c1 | 4.19% |
| O=C1CNC(=O)/C1=C\N1CCCCC1 | 14.3% |
| CC(C)(C)NS(=O)(=O)c1ccc(NS(=O)(=O)c2ccc(F)cc2)cc1 | 9.98% |
| OCCC1CN(Cc2cn[nH]c2C2CCCCC2)CCN1Cc1ccccc1 (stereo not shown) | 0.824% |
| CC1CCCN(C(=O)C2CCN(c3ncnc4c3nc3n4CCCCC3)CC2)C1 (stereo not shown) | -6.03% |
| C/C(=N\O)c1ccc(Cl)c(Cl)c1 | 6.14% |
| O=c1[nH]c(CN2CCN(S(=O)(=O)c3ccc4ccccc4c3)CC2)nc2ccccc12 | 2.03% |
| CC(C(=O)NCC1CCCCC1)N(C)Cc1cccc(Cl)c1 (stereo not shown) | -14.5% |
| CC(=O)c1cccc(NC(=O)COc2ccccc2C(=O)c2cc(C#N)c(=O)n(C3CCCCC3)c2)c1 | -20.5% |
| COc1ccc(C(=O)NCCc2cc3c(OC)ccc(OC)c3[nH]c2=O)cc1OC | -1.06% |
| Cl.N[C@@H](CO)c1cn([C@@H](Cc2cc3ccccc3[nH]2)C(=O)N2CCNCC2)nn1 | 10.2% |
| CN(C)c1ccc(NC(=O)CC2NCCNC2=O)cc1 (stereo not shown) | 6.28% |
| O=C(c1ccc2ccccc2c1)N1CCN(Cc2ccccc2)CC1 | -24.4% |
| O=C1NC(=O)C(=Cc2ccc(-c3ccc(S(=O)(=O)N4CCOCC4)cc3)o2)C(=O)N1 | 12.2% |
| Cc1ccsc1-c1nc(CSCC(=O)N2CCC3(CC2)OCCO3)c(C)o1 | 6.53% |
| COCCn1nnnc1CN1CCOCC1.Cl | 6.72% |
| Cc1cccc(C(=O)NNC(=O)c2cccc(C)c2)c1 | 15.9% |
| CC(C)CCN1C(=O)CCC1(C)C(=O)NC1CCCCCC1 (stereo not shown) | -4.75% |
| Cc1ccccc1CN1CCC(Oc2ccc(C(=O)N3CCCC3)cc2)CC1 | -13.7% |

| Structure (SMILES) | hERG current change (%, negative = inhibition) at 10uM |
| --- | --- |
| Cc1cc(Cl)n2ncc(-c3ccccc3)c2n1 | -15.2% |
| O=C(/C=C/c1ccco1)Nc1cccnc1 | 1.95% |
| Cc1cccc(CN2CCN(Cc3cccc4nonc34)CC2CCO)n1 (stereo not shown) | -24.1% |
| COc1cc(NC(=O)C2CC2)c(C(=O)O)cc1OC | 6.36% |
| CCn1cc(C(=O)NCc2ccncc2)c(=O)c2cc(F)c(N3CCN(C(=O)c4ccco4)CC3)cc21 | -66.4% |
| CN(C)c1ccc(C(CC(=O)O)NC(=O)c2ccc(Cl)cc2)cc1 (stereo not shown) | -9.38% |
| CCn1c(O)c(N=NC(=O)c2cccnc2)c2cc(Br)ccc21 | -2.17% |
| CC(=O)Nc1sc(C)c(C)c1C(=O)OCC(=O)N(Cc1ccccc1)C(C)C | 10.1% |
| CC(C)CNC(=O)NC(=O)COC(=O)C1CSC2(c3ccc(F)cc3)CCC(=O)N12 (stereo not shown) | 4.49% |
| COC(=O)CCc1c(C)c(C(=O)c2cc(F)c(F)c(F)c2F)c2ccccn12 | -28.4% |
| O=C(c1ccco1)c1cn(CC(=O)N2CCCCC2)c2ccccc12 | -6.34% |
| Cc1c(C)n(Cc2ccccc2)c2ncnc(NCCCO)c12 | 18.4% |
| CC(=O)c1c(C)n([O-])c2ccccc2[n+]1=O | 10.3% |
| CCCCn1c(N)c(N(CC(C)C)C(=O)c2cccc(OCc3ccccc3)c2)c(=O)[nH]c1=O | 20% |
| CCCCC/C=C/C1=CC(=O)C[C@H](c2ccc(OC)cc2)C1 | -2.92% |
| COc1ccc(Nc2nc3ccccc3s2)cc1 | 18% |
| COc1ccc(Cc2nc3ccc(C(=O)N4CCC[C@H]4CO)cc3o2)cc1 | -0.571% |
| O=C(NCC(=O)N(c1ccc(F)cc1)C(C(=O)NC1CCCCC1)c1cccnc1)c1ccco1 (stereo not shown) | 4.87% |
| C=CCOc1c(Br)cc(/C=C(\C#N)C(N)=O)cc1OC | -5.83% |
| CCN(C(=O)CSc1ncccc1C(=O)Oc1cccc([N+](=O)[O-])c1)c1cccc(C)c1 | 2.56% |
| N#Cc1cc([N+](=O)[O-])ccc1NC(=O)COC(=O)C1CC2CCCC(C1)C2=O (stereo not shown) | -18.3% |
| CCc1nc(SCC(=O)NCCc2ccccc2)c2c(=O)n(C)c(=O)n(C)c2n1 | -7.8% |

| Structure (SMILES) | hERG current change (%, negative = inhibition) at 10uM |
| --- | --- |
| COc1ccccc1CNC(=O)Cn1cc([N+](=O)[O-])ccc1=O | 15.2% |
| O=C(NC1CCCc2ccccc21)c1ccc(Br)cc1 (stereo not shown) | -7.78% |
| CC(C)Cn1c(=O)c(C(=O)NCc2ccc3c(c2)OCO3)c(O)c2ccccc21 | 16.4% |
| CC(=O)Nc1ccc(OCc2cnc(Cl)s2)cc1 | 11.3% |
| COc1cccc(/C=C2\Oc3cc(OC(=O)N4CCOCC4)ccc3C2=O)c1 | 14.2% |
| O=C(OCC(=O)N1c2ccccc2Sc2ccccc21)C1CC(=O)N(Cc2ccco2)C1 (stereo not shown) | -5.25% |
| O=c1[nH]c2ccc(F)cc2[nH]c1=O | 26.1% |
| O=C(NCc1cccnc1)C(=O)C1C(=O)Nc2ccccc21 (stereo not shown) | 13.1% |
| CCCOc1ccc(CNC(=O)c2ccc3c(c2)N(CC)CCS3)cc1 | -10.5% |
| O=C(N/N=C\c1ccccc1F)c1ccc(-c2ccccc2)cc1 | 12% |
| Cc1cc(S(=O)(=O)NCCCN2CCOCC2)c(Cl)cc1Cl | -13.1% |
| N#CC1=C(N)Oc2n[nH]c(-c3ccccc3)c2C1c1ccsc1 (stereo not shown) | 7.03% |
| COc1ccc(-c2c(C#Cc3ccsc3)c3cc(-c4cccc5[nH]ccc45)ccc3n2C)cc1 | 8.23% |
| CCCCOP(=O)(c1ccc(N(C)C)cc1)C(O)c1cc(OC)ccc1OC (stereo not shown) | 12.5% |
| CCCCc1cc(=O)oc2c(CN(C)C)c(O)c(Cl)cc12 | -1.34% |
| CCC(=O)NC1(Cc2ccc(O)cc2)CCCCC1 | -2.21% |
| O=C(c1ccccc1)N(c1ccccc1)C1C=CS(=O)(=O)C1 (stereo not shown) | 6.75% |
| CCCOc1nc2c(c(=O)n(C)c(=O)n2C)n1C | 1.36% |
| CCOc1ccc(OCCCC(=O)Nc2cc(Cl)ccc2-n2cncn2)cc1 | -43.1% |
| CC(=O)Nc1ccc(NC(=O)C(=O)c2cn(CC(=O)N3CCCCC3)c3ccccc23)cc1 | 25.8% |
| CCOCCCNC(=O)CCCOc1ccccc1 | -12.9% |
| COCCNC(=O)c1ccc2c(=O)n(Cc3ccco3)c(SCC(=O)NC3CCCCC3)nc2c1 | -47.1% |

| Structure (SMILES) | hERG current change (%, negative = inhibition) at 10uM |
| --- | --- |
| CCOC(=O)c1cccc(NC(=O)c2cc3sccc3n2C)c1 | -15.3% |
| CCc1ccc(N=CC2=C(O)CC(c3ccco3)CC2=O)cc1 (stereo not shown) | -4.48% |
| Cc1cc(C)n2nc(C(=O)Nc3ccc4c(c3)CCC4)nc2n1 | -15.7% |
| O=c1c(-c2n[nH]c(=S)n2-c2ccccc2)cccn1Cc1cccc(Cl)c1 | 24.7% |
| CCCCc1nnc(NC(=O)CCSc2ccccc2)s1 | -16.3% |
| CC(=O)Nc1cccc(NC(=O)CSc2nc3ccccc3o2)c1 | 7.51% |
| CCCc1ccc(OC(=O)c2cccs2)cc1 | -1.18% |
| Cc1ccc(-n2c(SCC(=O)N/N=C/c3ccccc3C(=O)O)nnc2-c2ccc(Cl)cc2)cc1 | 13.2% |
| COc1ccc(CNC(=O)CN(Cc2ccccc2Cl)C(=O)c2csnn2)cc1 | -34.8% |
| COc1cc2c(-c3ccccc3)c(C)oc2cc1/C=N/NC(N)=S | 20.6% |
| CCc1nnc(NS(=O)(=O)c2ccc(N=Cc3c(O)n(-c4ccc(Cl)cc4)c(=O)[nH]c3=O)cc2)s1 | 11.8% |
| COc1cc(NC(=O)C2CCC(CNc3c(N4CCC(C)CC4)c(=O)c3=O)CC2)cc(OC)c1 (stereo not shown) | 16.7% |
| O=C(CN1CCN(S(=O)(=O)N2CCCCCC2)CC1)Nc1ccc(Br)cc1 | -74.3% |
| COc1ccc(CNC(=O)C2CCCN(S(=O)(=O)c3cnc[nH]3)C2)cc1 (stereo not shown) | -2.81% |
| CCCc1cnc(N2CCN(S(C)(=O)=O)CC2)nc1 | -3.74% |
| Nc1c(C(=O)Nc2ccccc2)c2nc3ccccc3nc2n1CCCN1CCOCC1 | 18.7% |
| CCCCCC1CC(CC(=O)NC(=S)Nc2ccc([N+](=O)[O-])cc2)C(=O)O1 (stereo not shown) | -0.0907% |
| O=C(c1ccc2c(c1)OCO2)N1CCCN(C(=O)c2ccc3c(c2)OCO3)CC1 | 6.78% |
| COC(=O)CC1(c2cccc3ccccc23)C(=O)c2ccccc2C1=O | 12.9% |
| C=CCOC(=O)C1=C(C)NC(=O)NC1c1cc2c(cc1Br)OCO2 (stereo not shown) | -9.93% |
| COc1ccc(-n2c(COc3ccc(C)cc3)n[nH]c2=S)cc1 | 20.8% |
| CC1(C)CC(=O)C(C=Nc2cccnc2)=C(O)C1 | 14.5% |
